# From the supplement of paper PMC3334620
# Whole data set: some 33,000 sequences, median “E-score (-0.5 to 0.5)” near -0.013, cut for the highest 2% near 0.3. This is one part of the list.
# Target: T1, Msn1 (UniProt P22148)
# T1 sequence: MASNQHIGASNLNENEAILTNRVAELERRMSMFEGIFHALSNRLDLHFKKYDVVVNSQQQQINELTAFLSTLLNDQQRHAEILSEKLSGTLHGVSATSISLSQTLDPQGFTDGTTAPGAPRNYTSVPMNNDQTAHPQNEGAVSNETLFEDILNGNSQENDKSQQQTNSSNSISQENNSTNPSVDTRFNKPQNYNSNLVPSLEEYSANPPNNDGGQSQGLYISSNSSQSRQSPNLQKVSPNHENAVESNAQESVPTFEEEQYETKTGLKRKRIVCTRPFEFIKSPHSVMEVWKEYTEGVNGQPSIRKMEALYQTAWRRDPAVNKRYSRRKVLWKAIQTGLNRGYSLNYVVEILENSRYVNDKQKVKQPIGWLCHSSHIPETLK
# Assay: PBM E-score (8-mer binding enrichment) (E-score (-0.5 to 0.5)); higher = stronger / more preferred TF binding; most listed sequences are background and not binding sites
# Conditions: protein concentration: 200 nM; construct: GST-full length
# Method in brief: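 PURExpress in vitro transcription/translation supplied GST-tagged yeast transcription factors, either full-length or DNA-binding domain. Applied at about 100-200 nM to universal all-10-mer Agilent arrays double-stranded by primer extension, the bound protein was detected with fluorescent anti-GST. E-scores, modified Wilcoxon-Mann-Whitney statistics, were given by the Universal PBM Analysis Suite to ungapped eight-base words pooled with their reverse complements after masliner normalisation.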
row,Sequence,PBM E-score
1,TAAAACCA,0.133
2,ATCTGCGC,-0.0533
3,ACGCGCTA,-0.0481
4,GCATGCAA,-0.0104
5,CCAGGTCG,-0.104
6,AAGGTAGG,-0.0736
7,AACGGTCT,-0.0125
8,AAACACTG,0.00165
9,TGGTGAAA,-0.237
10,CAGGTCAA,-0.0471
11,GGACGCCC,-0.223
12,GAGGAAAA,0.0221
13,CGATCATA,0.0147
14,CCGGTGGA,-0.00742
15,AGTGATTG,0.108
16,ACGAGTGG,-0.166
17,ATTCTAGA,-0.044
18,ACGTCGTA,-0.158
19,GTTAATAA,0.138
20,CTGTCGAC,-0.0573
21,GCAAGACA,0.157
22,TGGCCCAA,-0.0694
23,CCACGGCG,-0.0661
24,GGGCAGCA,-0.164
25,CCGACCAA,-0.0361

row,Sequence,PBM E-score
1,AGGCTCGA,-0.00968
2,CCACTCTC,-0.25
3,ACGACACT,0.123
4,AGCCCATC,-0.119
5,ACAGTCGC,-0.126
6,AACATCAG,0.103
7,CACGGCAA,0.113
8,CACAGGGC,-0.253
9,CGTGCCCA,-0.00368
10,TACGGAAA,0.17
11,TACCGACA,0.298
12,AAATGGTC,0.14
13,AAAGCCAT,0.126
14,CGCATTCC,-0.173
15,ATCTCAGC,0.0764
16,ACCCTAAC,-0.0992
17,GTGAGTGA,-0.102
18,GACTACAC,-0.00713
19,ATCGTTTG,0.184
20,AATGATAG,0.104
21,GCCAAAGC,-0.0464
22,ATCGCAGA,-0.0761
23,ACTAAGCG,-0.00272
24,CACGGATC,0.0587
25,ACCTAAAT,-0.016

row,Sequence,PBM E-score
1,CTAACTTA,0.227
2,GCACCTGC,-0.162
3,GAACCAGC,0.012
4,ATAGTGTG,0.0124
5,GGTCAGGA,0.136
6,CTGTTAGA,-0.0588
7,CTTCCTAC,-0.257
8,GGATAGCA,-0.00882
9,GGGTCTAC,-0.171
10,TGAGTGAA,-0.115
11,GATGTCCA,0.458
12,CAAGGAAG,-0.0364
13,GAGATACC,0.105
14,ATCCCTTG,-0.0792
15,GTAGGGCA,-0.199
16,CACCTCAC,-0.0871
17,ATCAGAAG,-0.0462
18,AGGCAGCG,-0.198
19,GCCGGACC,-0.0867
20,CTTGTATC,0.106
21,GTGAAAGA,0.168
22,TACCGCGA,0.0826
23,CTGACCTC,-0.208
24,AGTAGTTG,0.0571
25,AAATCGTG,0.0983

row,Sequence,PBM E-score
1,AAAAAACG,0.185
2,AAGCAACT,0.14
3,CTATCGCC,-0.195
4,CGGTGATA,0.0477
5,AACCTCCC,-0.298
6,GGAATTTA,0.0324
7,CAGATTCC,-0.0173
8,CGCTAATC,-0.116
9,CCGTTAGC,0.0988
10,CTGATGAC,0.0578
11,ACCAATCT,-0.139
12,GCGGATGA,-0.0293
13,CATGAGAG,-0.0837
14,ACCCTCGC,-0.238
15,ATACAATA,0.114
16,GTGGATCA,-0.0446
17,ACACCTCC,-0.066
18,AGGCGTTG,0.0147
19,ACGTTATA,0.106
20,CATGCGGA,-0.0799
21,CCAGGATA,0.0404
22,AGTGCACC,-0.0574
23,ACACACAG,0.0288
24,GTCTACTA,0.0791
25,ACAACGGC,0.056

row,Sequence,PBM E-score
1,ATGATGAG,0.051
2,CGCACCCA,-0.196
3,CAGCACGC,-0.122
4,AGTGCATC,-0.143
5,ACAACCCA,0.0013
6,AAGGCGGA,-0.159
7,GTAGTTGA,0.103
8,CGTCGACG,-0.086
9,AAGGGAGG,-0.286
10,GCACCTCA,0.05
11,CATCTTAA,-0.00902
12,AAATGACG,0.214
13,CGAGGTAG,-0.251
14,CTCAACGC,-0.267
15,AACCTGAG,-0.0662
16,CGCTTCAG,-0.00969
17,GAAAGAGC,-0.103
18,CCCAAACG,0.106
19,CCCACGGC,-0.271
20,ATGCACGG,-0.13
21,GCAGGCCA,-0.00983
22,AGGGTCTA,-0.14
23,GAATATGA,0.0659
24,ACATGAGG,-0.0488
25,CATTAGTC,0.0288

row,Sequence,PBM E-score
1,ACCGTTGG,-0.139
2,CTTTTACA,0.261
3,ATTCAGCC,-0.0655
4,ACGGGGTC,-0.161
5,ATCCCACA,-0.141
6,ACGGCGCA,0.141
7,GGTGTAAC,0.0244
8,CGAAAGAC,0.0819
9,GCTAGTCA,-0.2
10,AGCGACTC,-0.183
11,GTGGTGTA,0.011
12,AATAAATA,0.302
13,CGCAGAGA,0.104
14,GGTGAAAA,0.175
15,TGAGTTAA,-0.0319
16,AATAAAGG,-0.119
17,AGCTCCTG,-0.175
18,AGAAGCCG,-0.0669
19,CCCAAGAG,-0.0231
20,AGGGCACC,-0.273
21,GATCTCCC,-0.161
22,ATGCAGTC,-0.186
23,ACAACAAT,0.229
24,AGCTATTC,-0.279
25,ACTTGGCT,-0.176

row,Sequence,PBM E-score
1,CACCCGAG,-0.074
2,GGCGCTCA,-0.151
3,CTAACAGA,0.112
4,AGAGCATC,-0.174
5,GGCGGCGA,-0.0421
6,GTACAATA,0.332
7,TACGGCGA,-0.0274
8,CCTATAAC,0.00773
9,CCGAGTAC,-0.0145
10,ACTCCCTG,-0.28
11,GGGGGCAA,-0.266
12,CAGACCTC,-0.125
13,AAGTCGTA,0.0748
14,ATATATCG,0.141
15,CAGGGCAA,-0.0169
16,AGTCAACA,0.0311
17,AAAAGTCT,0.269
18,AACGTAAC,-0.0335
19,CATCAAGA,0.0145
20,TGAATACA,0.173
21,AGCGACAG,0.0951
22,AGCATGGA,-0.133
